Hit rate of the full screen: of about 48,000 compounds, about 120 (0.25%) were called active. About 4% were inconclusive and are not listed. Calls follow the shape of the dose curve; as a rule, active = well fitted activation curve with a large enough effect; inconclusive = small, poorly fitted or top-dose-only effect, or another doubt; inactive = no such curve, though single readings can be large or run the other way. The list shows a part of the results.
assay: Primary qHTS for Identification of Small Molecule Activators of Huntingtin-Antisense Promoter Activity; conditions: HEK293 HTT-AS promoter firefly luciferase reporter, 24 h; series mostly up to 57.5 µM; activity change, positive = activation: at the top concentration; also: nearly all actives have a fitted effect of over 55% in size
In short: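 HEK293 cells carrying firefly luciferase reporters were seeded at 2,500 per well in Opti-MEM and cultured for 24 h. They were then treated with compounds at up to 57.5 uM final for 24 h at 37 degrees C before Dual-Glo luminescence readout.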

Activity change, positive = activation, inactive:
CCOc1ccc(CCNC(=O)c2ccc3c(c2)nc2n3CCOC2)cc1OCC -16.4%, CC(C)OCCCNC(=O)CCCn1c(SCC(N)=O)nc2c(sc3ccccc32)c1=O -4.34%, Cc1ccc(Cl)cc1NC(=O)C1CCN(C(=O)c2cnn(-c3ccccc3)c2-n2cccc2)CC1 -37.2%, O=C(CCS(=O)(=O)c1nc(-c2cccs2)cc(C(F)(F)F)n1)Nc1ccc(F)c(Cl)c1 -57.1%, Cc1ccc(NC(=O)C2CCN(S(=O)(=O)c3ccc4c(c3)CCCN4C(=O)C3CCC3)CC2)cc1 -19.3%, O=C(NCCCN1CCCCC1)c1[nH]c2ccccc2c1Sc1ccc(Cl)cc1 -21.1%, COC1CCC(C(=O)c2ccc3nc4c(cc3c2)CCCO4)CC1 (stereo unspecified) -12.9%, Cc1cc(C)nc(NS(=O)(=O)c2ccc(NC(=O)c3nc(SC(C)C)ncc3Cl)cc2)n1 0%, Cc1c(Cl)cccc1-n1ncc(C(=O)N2CCC(C)CC2)c1C1CCN(C(=O)OC(C)(C)C)CC1 12.2%, CN(C(=O)C1CCN(c2ncnc3c2nc2n3CCCCC2)CC1)c1ccccc1F -8.95%, CCN(CC)c1ccc(NC(=O)CN2CCN(S(=O)(=O)c3cc(Cl)ccc3OC)CC2)cc1 -7.9%, COc1ccc(NC(=O)CSc2nc(-c3ccccc3)[nH]c2-c2ccccc2)cc1OC -16.6%, CC(C)C(NS(=O)(=O)c1ccc2c(c1)oc(=O)n2C)C(=O)NCc1ccccc1 (stereo unspecified) 15.7%, CC(=O)c1ccc(N2CCN(C(=O)c3cc4c(s3)-c3ccccc3OC4)CC2)cc1 -10.9%, Cc1oc(-c2ccc(C(=O)NCc3ccccc3F)cc2)nc1COc1ccccc1 -30.7%, COc1ccccc1CCNC(=O)C(=O)NCC(c1ccco1)S(=O)(=O)c1ccccc1 (stereo unspecified) -28%, Cc1cccc(NC(=O)CSc2nc3ccccc3c3nc(CCc4c(C)n[nH]c4C)nn23)c1 -50.3%, COc1ccc(Nc2nc3ccccc3nc2NS(=O)(=O)c2ccc(Cl)cc2)cc1OC -41.8%, NS(=O)(=O)c1cc(C(=O)NN2C[C@H]3[C@H]4CCC(C4)[C@H]3C2)ccc1Cl 2.5%, CC(C)c1cnc2c(c1SCC(=O)O)c(=O)n(C)c(=O)n2C -6.57%, CCC(C(=O)NCc1cccc(Br)c1)n1nc(C)c2c(C)n(-c3ccccc3)nc2c1=O (stereo unspecified) -18.7%, O=S(=O)(Nc1cccc(F)c1)c1ccc2[nH]c3c(c2c1)CCCCC3 12.3% [at 11.5 µM, percent change from vehicle, -100% = no light], CC(=O)Nc1ccc(NC(=O)c2cnn(-c3ccccc3)c2C2CCN(C(=O)OC(C)(C)C)CC2)cc1 -1.05%, Cc1ccc(S(=O)(=O)NCCc2csc3nc(-c4ccccc4F)nn23)cc1C -24.2%, CN(C(=O)c1c2c(nc3ccccc13)C(=O)N(C1CCCCC1)C2)c1ccc(F)cc1 -6.82%, COc1cccc(-c2nc(SCc3ccc(C)cc3)n3[nH]c(=O)cc3n2)c1 8.84%, CC(C)(C)OC(=O)N1CCC(c2c(C(=O)N3CCC(c4ccccc4)C3)cnn2-c2ccc(Cl)cc2)CC1 (stereo unspecified) -28.8%, O=[N+]([O-])c1ccc(S(=O)(=O)N2CCn3cccc3C2c2ccccc2F)cc1 (stereo unspecified) -32.7%, CC(NC(=O)C1CCN(S(=O)(=O)c2ccc3c(c2)oc(=O)n3C)CC1)c1ccccc1 (stereo unspecified) -22.9%, CCOC(=O)c1c(C)oc2ncnc(N3CCN(c4ccccc4)CC3)c12 -34.8%, Cc1ccc(C)c(N2CCN(c3nc4ccc(Cl)cc4n4cnnc34)CC2)c1 -13%, Cc1ccccc1OCc1nnc(SCc2cc(=O)c3ccc(C)c(C)c3[nH]2)n1C -8.71%, COc1ccccc1-c1nc(S(=O)(=O)c2ccccc2)c(N2CCC(C)CC2)o1 30.8% [at 11.5 µM, percent change from vehicle, -100% = no light], Cc1ccc(-c2cc3c(n2-c2ccc(F)cc2)CC(C)(C)CC3=O)cc1 -10.2%, CC(Nc1ccc(-c2nc(-c3ccco3)no2)cc1[N+](=O)[O-])c1ccccc1 (stereo unspecified) 18%, CCS(=O)(=O)c1oc(-c2ccc(F)cc2)nc1S(=O)(=O)c1ccc(Br)cc1 -94.6%, CC(C)(C)C(=O)Nc1cccc(C(=O)OCc2cc(=O)n3nc(C4CC4)sc3n2)c1 17.1%, Cc1ccccc1NC(=O)CCNC(=O)Cn1ccc2ccccc2c1=O 1.75%, COc1cc(NC(=O)c2cc3ccc4cccnc4c3[nH]2)cc(OC)c1OC 1.74%, COc1ccccc1N1CCN(S(=O)(=O)CCNC(=O)C2CC(=O)N(c3ccccc3)C2)CC1 (stereo unspecified) -5.8%, CCOC(=O)c1ccc(NC(=O)CSc2nc(-c3cccs3)cc(C(F)(F)F)c2C#N)cc1 -16.3%, CCS(=O)(=O)c1nc(S(=O)(=O)c2ccc(C)cc2)c(NCC(C)C)s1 -27.5%, CCOC(=O)N1CCc2c(sc(NCc3sccc3C)c2C(=O)Nc2cc(Cl)ccc2OC)C1 4.26%, CC(=O)C1=C(c2ccc(Cl)c(Cl)c2)N(C(C)=O)n2cnnc2S1 -82.7%, O=C1CN(C(=O)COc2ccc(Cl)cc2)C(c2ccc(F)cc2)c2cc(Br)ccc2N1 (stereo unspecified) -43.3%, Cc1ccc(NC(=O)N2CCN(Cc3nc4ccc(C)cc4o3)CC2)c(Cl)c1 -24.4%, CCOc1ccccc1Nc1nnc(-c2cc3cc(Cl)ccc3oc2=O)s1 -16.9%, O=C(CNC(=O)c1ccccc1F)OCc1cc(=O)n2nc(C3CC3)sc2n1 -2.73%, CCC(=O)N1CCc2cc(CNC(=O)c3ccc(C#N)cc3)ccc21 -24.8%, CC(NC(=O)c1cc2ccccc2o1)c1ccccc1 (stereo unspecified) -22.9%, CCOc1ccc(NC(=O)CSC2=Nc3ccccc3C3=NC(Cc4ccccc4)C(=O)N23)cc1 (stereo unspecified) -0.265%, CCOC(=O)c1c(C)[nH]c(C)c1S(=O)(=O)N1CCCC(C(=O)Nc2cccc(C)n2)C1 (stereo unspecified) -14.2%, COc1ccc(-c2nc3sc(CCNC(=O)C(=O)Nc4ccc(C)c(F)c4)c(C)n3n2)cc1 -10.9%, CCCn1nc(NC(=O)c2cccc(Cl)c2)c2cc3cccc(C)c3nc21 0%, CCc1ccc(S(=O)(=O)c2cn(C)c3cc(F)c(F)cc3c2=O)cc1 1.45%, COc1ccccc1CN1CCN(C2CCN(C(=O)Nc3ccccc3)CC2)C(=O)C1=O 6.26%, Cc1ccc(NC(=O)Cn2c(-c3nonc3N)nc3ccccc32)cc1C -6.75%, NC(=O)C1CCCc2c1[nH]c1ccc(Cl)cc21 (stereo unspecified) -28.4%, CCc1ccc(NC(=O)C2CCCN(S(=O)(=O)c3cccc4nonc34)C2)cc1 (stereo unspecified) -14.9%, Cc1cc(C)c(NS(=O)(=O)c2cc(-c3cnc(C4CC4)o3)ccc2C)c(C)c1 -14.8%, COc1ccc(CNC(=O)C2CCN(S(=O)(=O)c3ccc4nc5c(c(C(=O)O)c4c3)CC(C)CC5)CC2)cc1 (stereo unspecified) -14.6%, CN1C(=O)Cc2cc(S(=O)(=O)CCC(=O)N3CCN(c4cccc(Cl)c4)CC3)ccc21 -23.5%, COc1cccc(NS(=O)(=O)c2cc3c4c(c2)C(C)C(=O)N4CCC3)c1 (stereo unspecified) -7.08%, COc1cc(-c2noc(C3CC(=O)N(c4cc(C)ccc4C)C3)n2)cc(OC)c1OC (stereo unspecified) -7.96%, Cc1ccsc1CCN1C(=O)N(c2ccc(F)cc2)C(=O)C1CC(=O)Nc1ccccc1 (stereo unspecified) -6.08%, CCOc1ccc(NC(=O)Cn2cnc3c(oc4ccccc43)c2=O)cc1 10.3%, Cc1cc(C)n(-c2nc(C)c(C)c(=O)n2CC(=O)Nc2ccc(Cl)c(Cl)c2)n1 -3.92%, COc1ccc(-c2nnc(SCC(=O)Nc3cccc(Cl)c3C)nc2-c2ccc(OC)cc2)cc1 -14.1%, COc1ccc(NC(=O)CCNS(=O)(=O)c2ccc3c(c2)CCN3C(=O)C2CC2)cc1Cl -39.5%, CCS(=O)(=O)c1cccc(-c2cc(C(=O)NC3CCN(C)CC3)c(C)c3[nH]c4ncc(C)cc4c23)c1 -37.5%, Cc1cc(C)c(NC(=O)Cn2nnc(C(=O)Nc3ccc(F)cc3F)c2N)c(C)c1 4.7%, COc1ccc(-c2cc(OC(=O)c3cccc(C)c3)c3c(C)oc(C)c3c(=O)c2)cc1 -19.6%, Cc1ccc(CNc2ncnc3c2cnn3-c2ccc(C)cc2C)cc1 -20.4%, CC(=O)Nc1ccc(NC(=O)c2c(C)nn(-c3ccccc3)c2-n2cccc2)cc1 -32.8%, CCc1nn2c(=O)cc(COC(=O)C3CCCCC3)nc2s1 -0.289%, COc1cccc(NC(=O)c2nnn(Cc3ccc(OC)c(Br)c3)c2N)c1 -26.6%, CCn1cc(C(=O)NCc2ccccc2OC)c(=O)c2cc(S(=O)(=O)N3CCCCCC3)ccc21 -28.9%, CCOC(=O)c1cc(-c2ccccc2)n(CCCC(=O)Nc2ccc(C)cc2Cl)c1C -30.6%, COC(=O)c1c(NC(=O)c2nc(SC)ncc2Cl)sc2c1CCCC2 -11.1%, CC(=O)NCc1nc2cccnc2n1Cc1ccccc1 -4.52%, CC(=O)c1cc(-c2ccccc2)n(CCC(=O)NCCc2ccccc2)c1C -17.5%, Cc1nc2c(-c3ccc(F)cc3)c(C)nn2c(C)c1CCC(=O)N1CCN(c2ccc(F)cc2)CC1 -13.7%, Cc1oc(-c2cccc(Cl)c2)nc1CSc1nnc(C)n2c1cc1occc12 -7.65%, COc1ccccc1N1CCN(C(=O)Cn2cnc3sc(C)c(S(=O)(=O)N4CCC(C)CC4)c3c2=O)CC1 24.1%, COc1ccc(Cl)cc1N(C)C(=O)Cc1noc2ccc(C)cc12 -7.77%, Cc1cccc(Cc2c(C)nc3nc(SCC(=O)NCc4ccc(F)cc4)nn3c2C)c1 -30.9%, C/C(=C1\CCOC(=O)S1)N(C=O)Cc1cnc(C)nc1N -6.12%, CC(C)(C)OC(=O)N1CCC(c2c(C(=O)NCc3ccccn3)cnn2-c2ccc(F)cc2)CC1 12.2%, COc1ccc2c(c1)c1c(c(=O)n(-c3cccc(C)c3)c(=O)n1CC(=O)N1CCCC1)n2C -10.5%, Cc1cc(C)c2c(=O)cc(C(=O)Nc3ccc(S(=O)(=O)Nc4onc(C)c4C)cc3)oc2c1 -5.14%, CCC(C)NC(=O)c1ccc2c(c1)N=C(C)c1cc(C)ccc1S2 (stereo unspecified) -50.6%

From PubChem BioAssay AID1508624 (National Center for Advancing Translational Sciences (NCATS), 2021)
